# From PubChem BioAssay AID485344 (National Center for Advancing Translational Sciences (NCATS), 2010)
# In all, about 340,000 compounds went through this assay and about 6,900 (2%) were called active. No stated cut-off is given here; in the data, active means inhibition above about 30%; inactive means below that, where a call was filed. The entries are a selection whose mix differs from that of the whole data set. Where no call is shown, the source filed none.
# Biological target: D(2) dopamine receptor (Homo sapiens) (UniProt P14416)
# Chain of UniProt P14416 (P14416 whole entry, looked up): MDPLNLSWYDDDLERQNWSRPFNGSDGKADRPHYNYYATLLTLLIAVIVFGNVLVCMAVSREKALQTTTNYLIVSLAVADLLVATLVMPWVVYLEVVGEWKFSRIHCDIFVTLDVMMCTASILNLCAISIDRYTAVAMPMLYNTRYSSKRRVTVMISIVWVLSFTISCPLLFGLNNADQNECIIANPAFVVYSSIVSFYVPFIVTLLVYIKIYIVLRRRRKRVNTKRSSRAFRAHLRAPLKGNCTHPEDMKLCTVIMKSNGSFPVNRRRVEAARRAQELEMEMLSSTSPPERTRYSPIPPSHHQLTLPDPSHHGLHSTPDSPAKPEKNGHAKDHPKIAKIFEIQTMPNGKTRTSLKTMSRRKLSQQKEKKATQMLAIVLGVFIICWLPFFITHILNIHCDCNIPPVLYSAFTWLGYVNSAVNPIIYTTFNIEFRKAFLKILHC
# Experiment: HTS Assay for Allosteric Antagonists of the Human D2 Dopamine Receptor: Primary Screen for Antagonists; further: 0% is about no effect
# Conditions: HEK293 TREx D2 cells, calcium flux, dopamine EC80; at 10 µM; stronger effect = higher value
# How it was run: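 Tetracycline-induced HEK293 T-REx cells expressing D2 force-coupled to calcium signalling were dye-loaded, exposed to compound for 180 s, then challenged with an EC80 of dopamine; calcium flux was followed kinetically for a further 180 s.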
row,SMILES,inhibition
1,Cc1ccccc1-n1c(=O)c2ccccc2n(Cc2ccc(F)cc2)c1=O,4.56%
2,COc1ccc(-n2c(=O)c3c4c(sc3n(Cc3c(F)cccc3Cl)c2=O)CN(C(C)=O)CC4)cc1OC,7.84%
3,O=C(Nc1ccc(F)cc1)c1ncn(-c2ccccc2)n1,-2.09%
4,CSc1ccc(CCNC(=O)CN2C(=O)COc3ccc(S(=O)(=O)N4CCCC4)cc32)cc1,4.18%
5,Clc1ccc(-c2nnn3c2nc(N2CCCCC2)c2ccccc23)cc1,-3.32%
6,CCOc1ccc(NC(=O)c2cnn3c2NC(c2ccccc2)=CC3c2cccc(OC)c2OC)cc1 (centres undefined),-5.43%
7,O=C(CN1CCN(c2ccccn2)CC1)Nc1ccc(OCc2ccccc2)cc1,active: 57.3%
8,Cc1oc2ncn(CC(C)C)c(=O)c2c1C(=O)N1CCN(c2ccccc2F)CC1,-6.46%
9,CCc1ccc(NC(=O)C2(c3cccs3)CCOCC2)cc1,18.4%
10,Cc1cc(C)c(NC(=O)CN(c2ccccc2)S(=O)(=O)N(C)C)c(C)c1,-8.85%
11,CCOc1ccc(C2=C(C(C)=O)Sc3nnc(C)n3N2C(C)=O)cc1,-10.3%
12,Cc1c(NC(=O)Nc2ccccc2C(F)(F)F)c(=O)n(-c2ccccc2)n1C,-1.84%
13,Cn1c(=O)n(C)c2cc(CNCc3ccc(F)cc3)ccc21,6.78%
14,CCOc1ccc(NC(=O)c2cccc3c(=O)c4c([nH]c23)CCCC4)cc1,23.1%
15,Cc1ccc(Cn2cnc3nc4c(cc3c2=O)CCCC4)cc1,19.3%
16,Cc1cc(C)cc(-n2c(SCC(=O)Nc3ccccc3F)nc3c(oc4ccccc43)c2=O)c1,-0.337%
17,O=C(CS(=O)(=O)c1ccc(Cl)cc1)Nc1nc2ccc(Br)cc2s1,17%
18,COc1ccc(CCNC(=O)CCN2N=C(c3ccccc3)CCC2=O)cc1OC,7.64%
19,CCCc1cc(C(=O)Cc2ccccn2)c(O)cc1O,active: 36.6%
20,O=c1n(Cc2ccc([N+](=O)[O-])cc2)c2ccccc2c2nc(-c3ccccc3)nn12,0.208%
21,COc1cc(C(=O)OCc2cc(=O)n3ccsc3n2)cc(OC)c1OC,4.73%
22,COc1ccc(NC(=O)Cn2nc(C)c3c(C)n(-c4ccccc4)nc3c2=O)cc1OC,5.12%

row,SMILES,inhibition
1,CCN(C(=O)c1nn(C)c2c1CSc1ccccc1-2)c1cccc(C)c1,-1.05%
2,CCOc1cc(-c2cc(C(=O)O)c3c(-c4ccccc4)[nH]nc3n2)ccc1O,9.24%
3,COc1ccc(S(=O)(=O)NCC(c2ccco2)S(=O)(=O)c2cccs2)cc1OC (centres undefined),-8%
4,CCOc1cc(C(=O)N2CC(=O)Nc3ccc(F)cc3C2c2ccccc2)cc(OCC)c1OCC (centres undefined),-11.6%
5,COc1ccc(N2CCN(CCCNC(=O)c3sc4ncccc4c3-n3cccc3)CC2)cc1,-9.24%
6,CC(C)OCCCNC(=O)Cn1c(-c2cccs2)cc2cc(F)ccc21,11.2%
7,COc1cc2nc(NCCc3ccc(Cl)cc3)n3nc(-c4ccccc4)nc3c2cc1OC,2.77%
8,Cc1cc(C)c(NC(=O)c2cc(S(=O)(=O)N3CCCC3)cn2C)c(C)c1,-6.33%
9,Cc1ccc(OCCSc2nc3ccccc3n2CC(=O)N2CCOCC2)cc1C,-13.6%
10,COc1ccc(CNc2nc(-c3ccccc3)nn2C(=O)c2ccccc2OC)cc1,7.03%
11,COc1cc(Cl)c(S(=O)(=O)N2CCN(c3c(C)cccc3C)CC2)cc1Cl,-7.08%
12,CCOC(=O)c1cc2c(=O)n3ccccc3nc2n(CC2CCCO2)c1=NC(=O)c1ccc(OCC)cc1 (centres undefined),-4.25%
13,CN(Cc1ccccc1)C(=O)c1c[nH]c2ccc(S(=O)(=O)Nc3ccccc3F)cc2c1=O,-28.2%
14,OC1CCCCC1Sc1nc2ccccc2s1 (centres undefined),active: 40.1%
15,CCCn1cc(S(=O)(=O)c2ccc(OCC)cc2)c(=O)c2cc(C)ccc21,20%
16,CCOc1ccc(-c2c(C)nn3c(C)c(C(=O)NC(C)c4ccccc4)cnc23)cc1OCC (centres undefined),-17.6%
17,CCCCC(=O)Nc1cc(-c2cn3cccnc3n2)ccc1C,28.4%
18,O=C(CCSCc1ccccc1Cl)NCCc1ccccc1,-1.73%
19,Cc1c(-c2cccc(NC(=O)Cc3ccccc3)c2)nc2ncccn12,7.47%
20,O=C(NCc1ccccc1)c1n[nH]nc1-c1ccccc1O,active: 30.8%
21,O=C(Cn1ccn(-c2ccc(F)c(F)c2)c(=O)c1=O)NCc1ccccc1,0.862%
22,COc1ccc(Cl)cc1NC(=O)N1CCC2(CC1)Oc1ccccc1C(=O)N2Cc1ccc(F)cc1,26%

row,SMILES,inhibition
1,CSc1nc2sc3c(c2c(=O)n1-c1ccc(C)cc1)CCCC3,14.3%
2,CCOC(=O)c1cnn(-c2cccc(Cl)c2)c1C1CCN(C(=O)OC(C)(C)C)CC1,7.85%
3,Cc1ccc(OCCSc2nc3ccc(NC(=O)COc4ccc(C)cc4)cc3s2)cc1,-13.1%
4,COc1ccc(NC(=O)N2CCC(n3c(C)nc4cccnc43)CC2)cc1OC,21.3%
5,CCOC(=O)C1=C(CN(CC)Cc2ccccc2)NC(=O)NC1c1ccc(Cl)cc1 (centres undefined),5.53%
6,Fc1ccc(NCc2nc3ccccc3n2CCOc2ccccc2Cl)cc1,11.7%
7,CC1CCc2c(sc3nnn(CC(=O)Nc4ccccc4Cl)c(=O)c23)C1 (centres undefined),6.15%
8,CC1(C)Cc2c(sc(/N=C/N3CCCC3)c2C#N)C(C)(C)N1,active: 32.9%
9,CSc1ncc2c(n1)-c1ccccc1N(Cc1ccccc1C)S2(=O)=O,2.67%
10,COc1ccc(-n2c(=O)c3c(c4cc(OC)ccc4n3C)n(Cc3c(F)cccc3Cl)c2=O)cc1,3.58%
11,Cc1cccc(-n2c3nc(=O)n(C)c(=O)c-3cc3c(C)nn(-c4ccccc4)c32)c1C,8.15%
12,COc1cccc(CCNC(=O)c2cnc3sc(N4CCCC4)nn3c2=O)c1,9.72%
13,COC1(C(F)(F)F)NC(=O)N(c2ccc(F)cc2)C1=O (centres undefined),-3.14%
14,Cc1ccc(NC(=O)CCNS(=O)(=O)c2cccs2)cc1F,-2.41%
15,COc1cccc(-c2nn(C)c3sc(C(=O)N4CCN(c5cccc(C(F)(F)F)c5)CC4)cc23)c1,5.73%
16,Cc1cn2c(=O)cc(COC(=O)COc3ccc(F)cc3)nc2s1,18%
17,CCCCNC(=O)c1ccc(-c2nc(CN3CCc4ccccc43)c(C)o2)cc1,-9.39%
18,COc1ccc(OC)c(S(=O)(=O)NCCc2sc(C)nc2C)c1,21%
19,Cc1cccc(COc2ccc(-c3cc(C(F)(F)F)n4nc(C)cc4n3)cc2)c1,14.3%
20,Cc1ccc(Nc2c3c(nc4ccccc24)CCC3)cc1F,-11.3%
